Measurements published in PMC9216511 (Science Advances, 2022).

Target: cytoplasmic fragment of rat syntaxin-1A (residues 2-253) (rat, UniProt P32851)
Test: FRET or BRET

UniProt P32851, sequence (P32851 2-253): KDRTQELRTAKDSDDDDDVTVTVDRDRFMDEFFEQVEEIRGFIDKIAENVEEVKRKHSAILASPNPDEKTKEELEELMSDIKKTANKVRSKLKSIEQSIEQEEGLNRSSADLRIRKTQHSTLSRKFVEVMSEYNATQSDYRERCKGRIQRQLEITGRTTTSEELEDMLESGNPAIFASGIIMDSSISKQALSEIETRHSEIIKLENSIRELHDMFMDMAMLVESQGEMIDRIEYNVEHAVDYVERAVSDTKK

B1: SNAP-25a R136C C84S, C85S, C90S, C92S labeled with tetramethylrhodamine (natural protein)
chain: not shown
binding result: binds
